The source gives no read counts; variants with many changes may rest on few reads.
B1: LINE1-mini (parent)
chain: GGCAGAGCUCAACACAGCGUGGCAAAGUGGCUGUGGCUAGACUGCC

Variants of: B1
Test: self-cleavage, relative activity (ratio to wild type); higher = more cleavage; in vitro, sequencing; the parent is a self-cleaving ribozyme

Row | Variant | self-cleavage
1 | AGCUGAGCUCGACAAAGCAUGGCAAACUGUCUGUGGCAAGACUCCC [G1A A4U A11G C15A G19A G27C G30U U38A G44C] | 0.01
2 | AGCAGAGCUCCGCACAGCAUGGCAAAGCGGCUGUGCCUAGACUGCC [G1A A11C A12G G19A U28C G36C] | 0.01
3 | AGCGGAGCUCAACAAAGCGCGGCAAAGUGGCUGUGUCUAGACUGCC [G1A A4G C15A U20C G36U] | 0.17
4 | AGCUGAGAUCAACACAGCGUGGCAAAGUGGCUGUGGCUAGACUGCC [G1A A4U C8A] | 2.09
5 | AGCUGAGGUCAACACAGCGUGGCAAAGUGGCUGUGGCUAGACUGCC [G1A A4U C8G] | 0.07
6 | AGCAGAGCUCAACACGACGUGGCAAAGUUGCUGUGGUUAGGCUGCU [G1A A16G G17A G29U C37U A41G C46U] | 0.01
7 | AGCAGAGCUCAGCACAGCGUGGCAAAGUGGCUGUGGCUACACUGCC [G1A A12G G40C] | 0.09
8 | AGCAGAGCUCAACUCAGCGGGGCAAAGUGGCUGUGGCUAGACUGCC [G1A A14U U20G] | 0.16
9 | AGCAGAGCUCAACGCACCGUGGCAAAGUUGCUCUGGCUAGACUGCC [G1A A14G G17C G29U G33C] | 0.03
10 | AGCAGAGCUCACCACAGCGUGGCAAAGCAGCUGUGGGUAGCCUGCC [G1A A12C U28C G29A C37G A41C] | 0.02
11 | AGCAGAGCUCAACACCGCUUGGCAAAGUGGCUGUGGCUAGCCUGCC [G1A A16C G19U A41C] | 0.04
12 | AGCAGAGCUCAUCACAGCGUGACAAAGUGGCUGUGGCUAGACUGCC [G1A A12U G22A] | 1.16
13 | AGCAGAGCUCUACACAGCGUGGAAAAGUGGCUGUGGCUAGACUGCC [G1A A11U C23A] | 0.09
14 | AGCAGGGUUCAACACGGCGUGGCUAAGUGGCUGUGGCUAGACUGAC [G1A A6G C8U A16G A24U C45A] | 0.03
15 | AGCAGAGCUCAACACCGCGUGGCAAAGUGGCUGUGGCUAGAUUGUC [G1A A16C C42U C45U] | 0.05
16 | AGCUGAGCUGAACACAGCGUGGCAAAGUGGCUGUGGCUGGACUGCC [G1A A4U C10G A39G] | 0.03
17 | AGCAGAGCUCAACACAGCGUGGCCAAGUGGCUGUGUCUAGACUGCC [G1A A24C G36U] | 0.04
18 | AGCAGAGCUCGACACAGCGUGUCAAAGUAGCUGUGGCUAGACUGCC [G1A A11G G22U G29A] | 0.06
19 | AGCGAAGCUCAAAACAGCGUCGCAAAGUGGCUGUGGAUAGACAGCC [G1A A4G G5A C13A G21C C37A U43A] | 0.04

Row | Variant | self-cleavage
20 | AGCAGAGCUCAACCCAGCGUGGCAAAGUCGCUGUGGCUAUACUGCC [G1A A14C G29C G40U] | 0.04
21 | AGCAGAGCUCAACACAGCGUGGCGAUGUGGCUGUGGCUAGAAUGCC [G1A A24G A26U C42A] | 0.02
22 | AGCAGAGCUCACCACAGCGUGGCAAAGUGUCUGUGGCUAGACUGCC [G1A A12C G30U] | 0.05
23 | AGCAGGGCUCAACCGAGCGCGGCAAAGUGGUUGUGGCUAGACUGCC [G1A A6G A14C C15G U20C C31U] | 0.01
24 | AGCAGAGCUCAGCCCAGCGUGGCAAAGUGGCUGUGACUAGACUGCC [G1A A12G A14C G36A] | 0.03
25 | AGCAGAGCUCAACACUGCGUGGUGAAGUCGCUGUGGCUAGACUGCG [G1A A16U C23U A24G G29C C46G] | 0.6
26 | AGCAGAGCUCAGCACAGCGUGGCAAAGUGGUUGUGGCUAGACUGCC [G1A A12G C31U] | 0.05
27 | AGCAGAGCUCAACACAGCGUGGCCAAGUGGCUGUGGCGAGACUGCC [G1A A24C U38G] | 0.08
28 | AGCAGAGCUCAACACAGCGUGGCCAAGUGGCUGUGGCCAGACUGCC [G1A A24C U38C] | 0.04
29 | AGCAGAGCUCGACGCAGCGUGGCAAAGUGGCUGUGGCGAGAAUGCC [G1A A11G A14G U38G C42A] | 0.01
30 | AGCAGAGCUCUAGACAGCAUGGCUAAGUGGCUGUGGCUAGACUGCC [G1A A11U C13G G19A A24U] | 0.01
31 | AGCAGAGCUCAACACGGCGUAGCAUAGUCGCUGUGGCUAGACUGCC [G1A A16G G21A A25U G29C] | 0.69
32 | AGCGGAGCUGAGAACAGCGUGGCAAAGUGGCUGUGGCUAGACUGCC [G1A A4G C10G A12G C13A] | 0.03
33 | AGCAGAGCUCAACACAGCGUGGCAACGUGUCUGUGGCUAGACUGCC [G1A A26C G30U] | 1.56
34 | AGCAGAGCUCAACACCGCGUGGCAAAGUGGCUGUCGCUAGCCUGCC [G1A A16C G35C A41C] | 0.01
35 | AGCAGAGCUCAACACUGAGUGGCAAAGUGGCUGUUGCUAGACUGCC [G1A A16U C18A G35U] | 0.06
36 | AGCAGAGCUCCACACAGCGUGGUAAAAUGGCUGUGGCUAGACUGCC [G1A A11C C23U G27A] | 0
37 | AGCAGAGCUCAACACAGCGUGGCAACGUGGCUGUGGCUAGAUUGCC [G1A A26C C42U] | 0.1
38 | AGCAGUGCUCAACCCAGCGUGGCAAGGUGGCUGUGGCUAGACUGCC [G1A A6U A14C A26G] | 0.37

Row | Variant | self-cleavage
39 | AGCAGCGGUCGACACAGCGUGGCAAAGUGGCUGUGGCUGGACUGCC [G1A A6C C8G A11G A39G] | 0.04
40 | AGCCGAGCUCAACACAGCGUGGAAGAGUGGCUGUGGCUAGACUGCC [G1A A4C C23A A25G] | 0.06
41 | AGCAGUGCUCAACACAGCGUGGCGAAGUGGCUGUGGCUAGAUUGCC [G1A A6U A24G C42U] | 0.18
42 | AGCAGAGCUCAACUCGGCGUGGCAAAUUGGCCGUGGAUAGACUGUC [G1A A14U A16G G27U U32C C37A C45U] | 0.01
43 | AGCGGAGCUCAACACAGCGUGGCAAAGUGGCUGUGGCUAGACUACC [G1A A4G G44A] | 0.18
44 | AGCAGCGCUCAACACAGCGUAGCAAAGUGGCUGUGGCUCGACUGCC [G1A A6C G21A A39C] | 0.36
45 | AGCAGAGCUCAACACAGCGUGGCAGAGUGGCGGUUGCUAGUCUGCC [G1A A25G U32G G35U A41U] | 0.01
46 | AGCAGAGCUCAGCACAUCGUGGCAAAGUGGCUGUCGCUAGACUGCC [G1A A12G G17U G35C] | 0.16
47 | AGCCGAGCUAAACACAGCGUGGCAAAGUGGCCGUGGCUAGACUGCC [G1A A4C C10A U32C] | 0.06
48 | AGCGCAGCUAAACACAGCGUGGCAAAGUGGCUGUGGAUAGACUGCC [G1A A4G G5C C10A C37A] | 0.02
49 | AGCGGAGCUGAACACAGCGUGGCAGAGUGGCUCUGGCUCGGCUGCC [G1A A4G C10G A25G G33C A39C A41G] | 0.01
50 | AGCAGAGCUCAGCAGAGCGUGGCAAAGUUGCUGUGGCUAGACUGCA [G1A A12G C15G G29U C46A] | 0.03
51 | AGCCGAGCUCAAUACAGCGUGGCAAAGUGGCUGUGGCUAGACUGCC [G1A A4C C13U] | 0.1
52 | AGCAGAGCUCAACACAGCGUGGCAACGUGGCUGUGGCUAGGCCGCC [G1A A26C A41G U43C] | 0.02
53 | AGCAGCGCUCAACACAGCGUGGCAAAGUGGUUGUGGCUAGACUGCC [G1A A6C C31U] | 0.14
54 | AGCAGCUCUCAACACAGCGUGGUAAAGUGGCUGUGGCUAGACGGCC [G1A A6C G7U C23U U43G] | 0.05
55 | AGCAGAGCUCUACGCAGCGUAGCAAAGUAGCUGUGUCUAGACUGCC [G1A A11U A14G G21A G29A G36U] | 0.01
56 | AGCGGAGCUCAACACAGCGUGACAAAGUGGCUGUGGCUAGACUGCC [G1A A4G G22A] | 0.22

From the RNAGym collection of RNA variant scans (doi:10.7554/elife.90254)
